Results taken from PubChem BioAssay AID1030 (National Center for Advancing Translational Sciences (NCATS), 2008).
In all, about 220,000 compounds went through this assay and about 16,000 (7.3%) were called active. Inconclusive results, whose numbers are uncertain, are shown with a selection of clear calls. The call rests on the fitted dose curve; in most records, active means well fitted inhibition curve with a large enough effect (not every such curve was filed as active); inconclusive means small, poorly fitted or top-dose-only effect, or another doubt; inactive means no such curve, though single readings can be large or run the other way. No potency is given beside an inconclusive call; the fits are too rough. Some structures have more than one record in an assay (separate samples or runs), and their calls can disagree.

Target: Aldehyde dehydrogenase 1A1 (Homo sapiens) (UniProt P00352)
Assay: qHTS Assay for Inhibitors of Aldehyde Dehydrogenase 1 (ALDH1A1);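 on activity, negative = inhibition: plate controls were no enzyme wells and a reference inhibitor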
Conditions: Purified ALDH1A1, NADH fluorescence, propionaldehyde substrate; series mostly up to 75.3 µM; activity, negative = inhibition: at the top concentration
Potency means the concentration at half of the fitted maximal effect; tags describe the fitted curve by direction and shape.

UniProt P00352, sequence (P00352 whole entry, looked up): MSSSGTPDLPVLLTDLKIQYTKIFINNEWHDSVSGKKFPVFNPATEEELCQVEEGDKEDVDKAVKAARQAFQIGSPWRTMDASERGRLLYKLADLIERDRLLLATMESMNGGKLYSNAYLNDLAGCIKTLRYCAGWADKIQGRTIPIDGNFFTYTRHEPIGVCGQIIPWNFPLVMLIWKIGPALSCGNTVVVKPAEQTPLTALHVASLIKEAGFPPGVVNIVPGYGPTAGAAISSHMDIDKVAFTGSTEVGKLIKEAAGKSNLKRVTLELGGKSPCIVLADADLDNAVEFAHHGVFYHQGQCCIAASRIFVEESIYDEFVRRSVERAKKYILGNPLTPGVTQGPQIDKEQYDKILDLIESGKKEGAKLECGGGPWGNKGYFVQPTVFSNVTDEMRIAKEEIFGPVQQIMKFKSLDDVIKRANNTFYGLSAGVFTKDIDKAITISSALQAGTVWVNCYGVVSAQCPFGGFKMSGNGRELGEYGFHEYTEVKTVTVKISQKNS

Row | SMILES | Potency | activity, negative = inhibition
1 | O=C(Nc1ccc(-c2ccc([N+](=O)[O-])cc2)cc1)c1ccccc1F | inconclusive [inhibitor, single point] | –
2 | CC(C)CCCC(C)C1CCC2C3CC[C@H]4CC(=O)CC[C@@]4(C)C3CC[C@@]12C (stereo partly specified) | – | inactive: 8.3%
3 | Nc1c(C(=O)NCc2ccco2)nnn1-c1ccccc1 | – | inactive: 6.41%
4 | c1ccc(-c2noc(-c3ccc4ccccc4c3)n2)cc1 | inconclusive [inhibitor, single point] | –
5 | O=C1OCCN1C(=O)[C@H]1[C@H](c2ccc(Cl)cc2)C(c2ccccc2)=NN1c1ccc(Br)cc1 | inconclusive [inhibitor, partial curve] | –
6 | CCOC(=O)c1c(NC(=O)COC(=O)Cn2cnc3ccccc32)sc(C)c1C | inconclusive [inhibitor, single point] | –
7 | COc1ccc(/C=N/NC(=O)CCSc2nc3ccccc3s2)cc1 | – | inactive: -7.76%
8 | CCCCN(C(=O)CCC(=O)O)C1CC(=O)N(c2ccc(OCCC)cc2)C1=O (stereo unspecified) | – | inactive: 13.1%
9 | CCNc1oc(COc2ccccc2F)nc1C#N | inconclusive [inhibitor, single point] | –
10 | COCCn1c(CCc2ccccc2)n[nH]c1=S | inconclusive [inhibitor, single point] | –
11 | COc1ccc(CNC(=O)c2c(C)cc(=O)oc2C)cc1 | inconclusive [inhibitor, single point] | –
12 | CCCNC(=O)c1cc(-c2ccc(OC)cc2)n(CCCOC)c1C | inconclusive [inhibitor, single point] | –
13 | Cn1c(=O)c2c(nc(SCCN3CCOCC3)n2Cc2ccccc2Cl)n(C)c1=O | – | inactive: -6.76%
14 | COC(=O)Cc1c(C)c2ccc(OCc3nn[nH]n3)c(C)c2oc1=O | inconclusive [inhibitor, partial curve] | –
15 | Cc1nn(C)c(C)c1CN(C(=O)CCc1nnc(Cc2c[nH]c3ccccc23)o1)C(C)C | – | inactive: 17%
16 | CCn1c(SCC(=O)Nc2ccc(OC)cc2OC)nc2nc3c(cc2c1=O)COC(C)(C)C3 | inconclusive [inhibitor, partial curve] | –
17 | O=C(Nc1cccc(Cl)c1)C1=Cc2cc(Cl)ccc2OC1 | inconclusive [inhibitor, single point] | –
18 | COc1ccccc1-c1cc2nc(C)c(CCC(=O)NC(C)CCc3ccco3)c(C)n2n1 (stereo unspecified) | inconclusive [inhibitor, single point] | –
19 | CN1CCN(c2ccc(CNC(=O)c3ccco3)cc2)CC1 | – | inactive: 4.4%
20 | O=C(CSc1ccccc1)Nc1ccncc1 | inconclusive [inhibitor, single point] | –
21 | Cc1ccc(NS(=O)(=O)c2cccc(C(=O)NCCc3c[nH]c4ccccc34)c2)c(C)c1 | inconclusive [inhibitor, single point] | –
22 | C/C(=N\NC(N)=O)c1ccccc1 | inconclusive [inhibitor, single point] | –
23 | O=C(Nc1cccn(Cc2cccc(F)c2)c1=O)NC1CCCCC1 | inconclusive [inhibitor, single point] | –
24 | O=C(NNC(=S)Nc1ccccc1)c1ccncc1 | inconclusive [inhibitor, single point] | –

Row | SMILES | Potency | activity, negative = inhibition
25 | O=c1cc(-c2ccccc2)oc2cc(O)c(O)c(O)c12 | active: 15 µM | –
26 | CC(=O)NC1C(c2nc3ccccc3s2)=C(c2ccccc2)C(=O)N1c1ccc(C)cc1 (stereo unspecified) | active: 7.94 µM | –
27 | O=[N+]([O-])c1nn(-c2ccc3c(c2)OCCO3)n(O)c1=NC1CCCCCC1 | active: 14.1 µM | –
28 | CCCn1c(=N)n(CC(=O)c2ccc([N+](=O)[O-])cc2)c2ccccc21 | inconclusive [inhibitor, single point] | –
29 | CN(C)C(=O)CCC(=O)N1CCCC(C(=O)c2ccc3c4c(cccc24)CC3)C1 (stereo unspecified) | inconclusive [inhibitor, single point] | –
30 | O=C(CN1CCN(c2ccccn2)CC1)Nc1cccc(C(F)(F)F)c1 | active: 9.46 µM | –
31 | Cc1cc(-c2cccs2)c2c(N)c(C(=O)c3ccc4c(c3)OCO4)sc2n1 | inconclusive [inhibitor, partial curve] | –
32 | CC(C)(C)c1ccc(O)c(CN(Cc2cc(C(C)(C)C)ccc2O)c2ccccc2)c1 | – | inactive: 8.08% [at 13.5 µM]
33 | O=C(Nc1sc2c(c1-c1nc3ccccc3[nH]1)CCCC2)C1CCCC1 | inconclusive [inhibitor, partial curve] | –
34 | N#Cc1nc(-c2ccc(F)cc2)oc1NCc1cccc2c1OCO2 | inconclusive [inhibitor, partial curve] | –
35 | CCOC(=O)N1CCC(=NNc2ncc(C(F)(F)F)cc2Cl)CC1 | inconclusive [inhibitor, partial curve, poor fit] | –
36 | N#Cc1ccccc1Sc1ccccc1C(=O)Nc1ccccc1 | – | inactive: 2.01%
37 | CCOC(=O)C(=O)N(Nc1ccccc1C)c1ccccc1C | inconclusive [inhibitor, single point] | –
38 | O=C(OCc1ccco1)c1cccnc1 | – | inactive: -11.5%
39 | CCOc1cc2[nH]c(=O)n(CC3CCC(C(=O)NCCCOC)CC3)c(=O)c2cc1OCC (stereo unspecified) | inconclusive [inhibitor, single point] | –
40 | CNc1oc(-c2ccc(Cl)cc2)nc1C#N | inconclusive [inhibitor, partial curve] | –
41 | COC(=O)c1ccc(N2CCS(=O)(=O)CC2)cc1 | inconclusive [inhibitor, single point] | –
42 | COC(=O)c1sccc1NC(=S)Nc1ccc(F)cc1 | inconclusive [inhibitor, single point] | –
43 | COC(=O)c1sc(-c2ccccc2)cc1NC(=O)C1CC1 | – | inactive: -4.34%
44 | CC1(OC(=O)C2CCCC2)C(=O)C=C2C=C(C3CC3)OC=C2C1=O (stereo unspecified) | – | inactive: -1.62%
45 | Cc1ccccc1OCC(=O)Nc1sc(C(=O)Nc2cccc(C)c2C)c(C)c1C#N | – | inactive: -4.48%
46 | COc1cccc2c(Cl)c(CC=C(Cl)Cl)c(C)nc12 | inconclusive [inhibitor, single point] | –
47 | Cn1c2ccccc2c2c(C(=O)O)cn(C3CCCC3)c(=O)c21 | inconclusive [inhibitor, partial curve] | –
48 | CS(=O)(=O)N1CCC[C@@]2(CCN(c3ccccn3)C2)C1 | inconclusive [inhibitor, single point] | –

Row | SMILES | Potency | activity, negative = inhibition
49 | CCOC(=O)N1CCN(C(=O)COc2ccc(S(=O)(=O)NCC(C)C)cc2C)CC1 | inconclusive [inhibitor, single point] | –
50 | COc1ccccc1OCCNC1CCCC1 | inconclusive [inhibitor, single point] | –
51 | Cc1cccc(N(C(=O)Cc2cccs2)C(C(=O)NCc2ccco2)c2ccncc2)c1 (stereo unspecified) | – | inactive: 1.4%
52 | CC(C)OC(=O)C(C(=O)C(F)(F)F)c1cc(NS(=O)(=O)c2ccc3ccccc3c2)c2ccccc2c1O (stereo unspecified) | inconclusive [inhibitor, single point] | –
53 | O=C(Nc1ccncc1)C1c2ccccc2Oc2ccccc21 | inconclusive [inhibitor, single point] | –
54 | CNS(=O)(=O)c1cccc(C(=O)OCC(=O)N(Cc2ccccc2)C(C)(C)C)c1 | – | inactive: 3.65%
55 | CC(NC(=O)Cn1nnc(-c2ccncc2)n1)c1ccccc1 (stereo unspecified) | – | inactive: -3.84%
56 | O=C(Nc1cccc(F)c1)N1CCC2(CC1)CCN(S(=O)(=O)c1ccccc1)CC2 | inconclusive [inhibitor, single point] | –
57 | O=C(Nc1ccc2c(c1)OCCO2)c1coc2ccccc2c1=O | inconclusive [inhibitor, single point] | –
58 | O=C(C1COc2ccccc2O1)N1CCc2ccccc2C1 (stereo unspecified) | inconclusive [inhibitor, single point] | –
59 | CC(=O)Nc1ccc(-c2csc(NC=C3C(=O)OC(C)(C)OC3=O)n2)cc1 | inconclusive [inhibitor, partial curve] | –
60 | O/N=C(/CCc1ccccc1)c1ccc2c(c1)OCCO2 | inconclusive [inhibitor, single point] | –
61 | Nc1nnc(-c2ccccc2Cl)s1 | inconclusive [inhibitor, single point] | –
62 | CCN(CC)S(=O)(=O)c1ccc(OC)c(NC(=O)c2cc3c(=O)n4ccccc4nc3s2)c1 | inconclusive [inhibitor, single point] | –
63 | CCC1SC2=NC(C)=C(C(=O)OCCOC)C(/C=C/c3ccccc3OC)N2C1=O (stereo unspecified) | inconclusive [inhibitor, partial curve] | –
64 | c1ccc(CN2CCN(Cc3nnc(-c4ccccc4)o3)CC2)cc1 | inconclusive [inhibitor, single point] | –
65 | Cc1cccc(N2CCN(C(=O)c3cn(C)c(=O)c4c3c3ccccc3n4C)CC2)c1C | inconclusive [inhibitor, single point] | –
66 | O=C(NC1CCCCC1)c1cc2nc3c(c(C(F)(F)F)n2n1)CCCC3 | inconclusive [inhibitor, partial curve] | –
67 | Cc1cc(C)c2cc(CN(CCO)Cc3nnnn3Cc3ccccc3)c(=O)[nH]c2c1 | active: 5.01 µM | –
68 | CCN(CC)CCNC(=O)c1ccc2c(c1)ncn2C1CCCCC1 | – | inactive: -6.94%
69 | COC(=O)c1n[nH]n(-c2cc(Cl)cc(Cl)c2)c1=O | active: 10 µM | –
70 | CC1(O)c2ccccc2C(=O)N1Cc1ccccc1 (stereo unspecified) | inconclusive [inhibitor, single point] | –
71 | CCN(CC)c1ccc(/C=N/NC(=O)c2cccc(S(=O)(=O)N3CCOCC3)c2)cc1 | inconclusive [inhibitor, partial curve] | –
